According to the supplement of paper PMC12217912:
Some of the results follow. Sequences were assembled here from the parent chain. Values near 0.05 are background.

B1: TEV protease; numbered along this chain (parent)
chain: MGESLFKGPRDYNPISSSICHLTNESDGHTTSLYGIGFGPFIITNKHLFRRNNGTLVVQSLHGVFKVKDTTTLQQHLVDGRDMIIIRMPKDFPPFPQKLKFREPQREERICLVTTNFQTKSMSSMVSDTSCTFPSGDGIFWKHWIQTKDGQCGSPLVSTRDGFIVGIHSASNFTNTNNYFTSVPKNFMELLTNQEAQQWVSGWRLNADSVLWGGHKVFMVKPEEPFQPVKEATQL

Variants of: B1
Experiment: raw area under fraction-flipped curve 0-4 h after induction (AUC4h, not background-subtracted), DNA-recorder readout of cleavage of the substrate (dimensionless); higher = more cleavage of the substrate by the protease variant
Settings: temperature: 34 °C; time window: 0-4 h after rhamnose induction
Protocol: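 In vivo DNA recorder in E. coli TOP10(DE3) ΔrhaA at 34 °C. Each TEVp single-site mutant (parent TEVp 0) is paired with a single-site variant of the 7-mer TEVs (canonical ENLYFQ|S). The substrate sits between flexible linkers in a Bxb1-sfGFP-TEVs-SsrA fusion, so cleavage stabilises Bxb1 and speeds flipping of a recombination array, read by NGS. The value is the raw area under the fraction-flipped curve over 0-4 h after rhamnose induction (AUC4h), with ≥20 reads per time point. It is not background-subtracted; inactive controls average about 0.047.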
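Also: Bxb1 expression induced with 0.2% (w/v) L-rhamnose at OD600 near 0.5, cultures sampled hourly, flipped fraction per protease–substrate barcode pair counted by paired-end Illumina sequencing.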

Variant	area with substrate ENAYFQS	area with substrate ENCYFQS	area with substrate ENDYFQS	area with substrate ENEYFQS	area with substrate ENFYFQS	area with substrate ENGYFQS	area with substrate ENHYFQS	area with substrate ENIYFQS	area with substrate ENMYFQS	area with substrate ENNYFQS	area with substrate ENPYFQS	area with substrate ENQYFQS	area with substrate ENRYFQS	area with substrate ENSYFQS	area with substrate ENTYFQS	area with substrate ENVYFQS	area with substrate ENWYFQS	area with substrate ENYYFQS	area with substrate ENKYFQS
E25G	0.0626	0.0527	0.0599	0.0608	0.0565	0.0562	0.0658	0.103	0.0649	0.0628	0.0772	0.0627	0.056	0.0567	0.0546	0.0577	0.0568	0.0559	
E25N	0.0636	0.0673	0.0627	0.052	0.0426	0.0718	0.0561	0.0898		0.058	0.0617	0.0561	0.0461	0.0637	0.0613			0.0372	
E25R	0.0661	0.0701	0.0553	0.0627	0.0534	0.0564	0.0576	0.125	0.0892	0.0518	0.0656	0.0568	0.0594	0.06	0.0717	0.0715	0.0123	0.0601	0.0688
E25W	0.0693	0.0651	0.0523	0.0559	0.0506	0.0566	0.0765	0.113	0.0734	0.0644		0.05	0.0507	0.0603	0.0558	0.0757	0.0498		0.0511
E25Y	0.062	0.0554	0.0627	0.0601	0.0698	0.061	0.0601	0.102	0.0522	0.0513		0.0583	0.0635	0.0576	0.0676	0.0691	0.0265		0.0539
S26H	0.0668		0.0648	0.0596	0.0647		0.0736	0.0714	0.0908			0.0541	0.0566	0.0678	0.0668	0.0692	0.0698		
S26L	0.0557	0.0642	0.0597	0.0458	0.0554	0.0446	0.0587	0.0522			0.0536	0.0513	0.0693	0.0686	0.0576	0.0687		0.057	0.0498
S26N	0.0557	0.0495	0.0579	0.0508	0.0579		0.0519			0.045	0.0264	0.0571	0.0598	0.067	0.0693	0.0698	0.0578	0.0514	0.072
S26P	0.0596	0.0508		0.0467	0.0454	0.0627		0.0784	0.0676	0.0349		0.0378			0.0506	0.0456	0.058	0.0586	0.0544
S26W	0.0509	0.069	0.0637	0.0592	0.0599	0.0747	0.0592	0.0808	0.0742	0.068	0.0615	0.0494	0.0614	0.0468	0.0569	0.0715			
D27C	0.0546	0.0654	0.066	0.0733	0.0421					0.0559		0.0601	0.0418	0.0688	0.0589	0.077		0.0563	0.0683
G28D	0.0544	0.0797	0.0574	0.0643	0.0594	0.0573		0.0933	0.062	0.0578	0.0586	0.0651	0.0536	0.0757	0.0663	0.0651		0.0613	0.0668
G28I	0.0453	0.0574	0.0516	0.064		0.0528	0.0561		0.0679			0.0525	0.0554	0.0528	0.0633	0.0659	0.011	0.0616	0.0563
H29C	0.0651	0.0712	0.0606	0.0556	0.0574		0.0565		0.0664		0.0605	0.0715		0.0642	0.073	0.0844	0.0635	0.0735	0.076
H29N	0.0634	0.069	0.0695	0.0634	0.0629	0.0631	0.0616		0.0802	0.0657	0.0657	0.0715	0.0531	0.0628	0.063		0.0522	0.0474	0.06
T30L	0.0653		0.0729	0.0639		0.0544			0.112	0.0628		0.0583	0.0479	0.0605	0.0652	0.0877	0.0099		0.0575
T30Y	0.061	0.0652	0.0598	0.066	0.0647	0.0705	0.0578		0.108	0.0568		0.0707	0.0523		0.0701	0.0769	0.073	0.0559	0.0611
T31A	0.0959			0.0612	0.0635		0.0537		0.0881	0.066		0.0563	0.0541	0.0619	0.0524	0.0779		0.0171	0.0518
L33I	0.0622		0.06	0.0636	0.0553	0.0583			0.0593	0.0643	0.0626	0.0517	0.0495		0.0689	0.0676			0.0592
L33M	0.0618		0.0719	0.0646	0.0613	0.0644			0.0551	0.0527	0.0509	0.0504		0.0607	0.087	0.0633	0.0602	0.0724	0.0549
I36H	0.0443	0.0606	0.0457	0.0469	0.0456	0.0467	0.0407	0.054	0.0551	0.0509	0.0559	0.0446		0.0489	0.0448			0.0671	
I36M	0.0602	0.0549	0.0637	0.0697		0.0562	0.0585			0.0468	0.0402	0.058	0.0463	0.0557	0.0531	0.0739	0.0451		0.0678
I36S	0.0393	0.063	0.0491	0.0534	0.0539	0.0585		0.0783	0.056	0.0469	0.0449	0.0528	0.0477	0.0571	0.0506	0.0678	0.0342		0.063
